# Results from paper PMC6919601, “Identification of Plasmodium dipeptidyl aminopeptidase allosteric inhibitors by high throughput screening” (PLoS ONE, 2019).
# Among all 110,000 compounds or so, about 230 (0.21%) showed an effect of 50% or more. The list shows a part of the results.
# Target: DPAP1 (Plasmodium falciparum, UniProt Q8IIJ9)
# Experiment: primary screen, percent inhibition; read by cleavage of a fluorogenic dipeptide substrate; higher = more effect of the substance
# Parameters: species or system P. falciparum D10 trophozoite lysates; single well
# 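Note: 30 min substrate incubation versus DMSO and 10 µM JCP410 controls.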
# Chain of DPAP1 (Q8IIJ9 whole entry, looked up): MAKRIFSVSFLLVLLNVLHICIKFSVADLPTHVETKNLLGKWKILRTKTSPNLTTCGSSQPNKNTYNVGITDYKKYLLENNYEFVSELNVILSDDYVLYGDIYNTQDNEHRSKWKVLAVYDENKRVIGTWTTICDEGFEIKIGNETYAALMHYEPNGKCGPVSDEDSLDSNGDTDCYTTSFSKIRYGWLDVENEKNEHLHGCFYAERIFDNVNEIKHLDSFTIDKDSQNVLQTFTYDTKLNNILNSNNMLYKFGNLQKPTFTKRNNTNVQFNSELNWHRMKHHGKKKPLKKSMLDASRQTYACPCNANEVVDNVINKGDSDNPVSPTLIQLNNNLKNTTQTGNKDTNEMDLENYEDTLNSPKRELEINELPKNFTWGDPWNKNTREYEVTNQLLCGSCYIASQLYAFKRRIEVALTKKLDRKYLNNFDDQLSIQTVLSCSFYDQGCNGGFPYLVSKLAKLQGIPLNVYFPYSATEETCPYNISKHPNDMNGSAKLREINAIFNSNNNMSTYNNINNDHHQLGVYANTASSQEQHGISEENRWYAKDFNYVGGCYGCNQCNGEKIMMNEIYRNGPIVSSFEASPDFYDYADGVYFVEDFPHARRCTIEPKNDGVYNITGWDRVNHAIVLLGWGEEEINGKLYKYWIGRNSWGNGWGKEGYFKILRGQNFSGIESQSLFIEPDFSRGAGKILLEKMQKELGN
row,Compound,% Inhibition @ 10 uM [%]
1,Cc1cccc(N(CC(=O)Nc2ccc3c(c2)OCO3)S(=O)(=O)c2ccccc2)c1C,-3.69
2,CC1CCN(c2nc3c(c(=O)[nH]c(=O)n3C)n2Cc2ccccc2F)CC1,5.54
3,CC(C)c1ccc(CNc2ccc(O)cc2)cc1,-4.76
4,NC(=O)c1ccc(-n2c(CCC(=O)O)ccc2-c2ccccc2)cc1,0.558
5,CN(C)CCCN1C(=O)CSC1c1ccc2c(c1)OCO2 (centres unmarked),-3.52
6,COc1ccccc1CN1COc2ccc3c(-c4ccccc4)cc(=O)oc3c2C1,2.65
7,COc1cc(/C=C2/SC(NC(C)=O)=NC2=O)cc(Cl)c1OCc1ccc(C(=O)O)cc1,4.85
8,Cc1cccc(NC(=O)NCc2ccccn2)c1,1.61
9,CCOC(=O)N1CCN(Cc2nc3c(c(=O)[nH]c(=O)n3C)n2CC(C)C)CC1,-2.92
10,Cc1cc(C(=O)NCCc2sccc2C)c2c(C)nn(-c3ccccc3)c2n1,2.12
11,Cc1cc2cc(CNC(=S)NC3CCCCC3)ccc2[nH]1,3.19
12,CC(CCN(C)CCN(C)C)c1ccccc1 (centres unmarked),-2
13,CCCCCCc1ccc(-c2ncc(N)cn2)cc1,0.634
14,CCCn1c2ccccc2c2cnn(CC(=O)NCC3CCN(Cc4ccccc4F)CC3)c(=O)c21,5.05
15,CCC(=O)NS(=O)(=O)c1cnccc1Sc1ccc(Cl)cc1,-10.2
16,COc1cccc(C(=O)Nc2cc(C)ccc2C)c1,-5.82
17,CC(C)C[C@H](NC(=O)c1ccc(N2CCN(C)CC2)cc1)C(=O)N[C@@H](CC1CCCN1C(=N)N)C(=O)O (some centres unmarked),-1.41
18,C=C(C)C(C)(O)C#CCN(CC)CC (centres unmarked),-3.79
19,C/C(=N\c1ccccc1)C1=C(O)CC(C)(C)CC1=O,2.45
20,COc1ccccc1N1C(=O)c2ccccc2NC1c1ccncc1 (centres unmarked),-1.95
21,CC(C)(C)Nc1nc(Cl)nc(NC(C)(C)C)n1,-2.51
22,O=C(c1ccco1)N1CCN(C(=O)c2cc(-c3ccc(F)cc3)no2)CC1,1.92
23,Nc1ncc(Br)cc1S(=O)(=O)NCCC(=O)NC1CCCCCC1,-4.09
24,Cc1ccc(C(=O)N2CCN(c3cccc(Cl)c3)CC2)cc1,0.526
25,CN(Cc1ccccc1)S(=O)(=O)c1ccc2ncc(C(=O)N3CCC4(CC3)OCCO4)c(O)c2c1,-5.64

row,Compound,% Inhibition @ 10 uM [%]
1,CCn1c(SCC(O)c2ccccc2)nc2ccccc21 (centres unmarked),-1.31
2,C=CCNC(=O)/C(=C\c1ccc(-c2ccc(Cl)cc2)o1)NC(=O)c1ccccc1,2.45
3,Cc1ccc(CNc2cc(C)nc3nncn23)cc1,-4.39
4,Cc1c(C(=O)NCc2ccccc2Cl)oc2ccc3c(c12)C(=O)CC(C)(C)O3,-1.6
5,Cc1nn(C)c(C)c1/C=C/C(=O)c1ccc(Cl)cc1Cl,0.00706
6,Cc1ccc(S(=O)(=O)NCC2CCC(C(=O)N3CCN(Cc4ccccc4)CC3)CC2)cc1 (centres unmarked),-2.72
7,N#CC1(Nc2ccccc2Cl)C(=O)Nc2ccccc21 (centres unmarked),-2.96
8,CC(C)C[C@H](NC(=O)c1cc(-c2ccccc2Cl)c(-c2ccccc2Cl)s1)C(=O)NCC#N,-0.207
9,O=[N+]([O-])c1ccccc1C1CC(c2ccccc2)=NN1 (centres unmarked),7.66
10,CC1CCN(S(=O)(=O)c2ccc(F)cc2)CC1,1.83
11,COc1ccccc1NC(=O)c1cccnc1,-4.49
12,O=S(=O)(NCC1CCCO1)c1ccc(-c2cc(C(F)(F)F)no2)s1 (centres unmarked),-2.31
13,CC(Cc1cccc(C(F)(F)F)c1)N1CCN(C/C=C/c2ccccc2)CC1 (centres unmarked),1.38
14,COCCNc1nn2c(=O)c3c4c(sc3nc2c2ccccc12)CCCCC4,11.5
15,COc1ccc(CN2CCN(C/C=C/c3ccccc3)CC2)cc1Br,-5.68
16,CC(C)c1ccc(C(=O)NCc2ccc(S(N)(=O)=O)cc2)cc1,-2.83
17,CC(C)CC(C(=O)NCC#N)c1cccc(-c2ccc(S(=O)(=O)N3CCOCC3)cc2)c1 (centres unmarked),6.03
18,Cc1ccc(C(=O)Nc2ccc(S(=O)(=O)Nc3nccs3)cc2)cc1,-4.86
19,COc1cccc(CNC(=O)CCn2nc(C)c3c(C)n(-c4ccccc4)nc3c2=O)c1OC,-5.74
20,COc1ccc(-n2nc3c(c2NC(=O)c2ccc(Br)o2)CS(=O)(=O)C3)cc1,11
21,Cc1ccc(OCCn2cc(/C=C3/C(=O)NC(=O)N(Cc4ccco4)C3=O)c3ccccc32)cc1,-3.41
22,Cc1nn(CC(=O)NCc2ccc(OC(C)C)cc2)c(=O)c2c1sc1ccccc12,0.39
23,CC1=C(C(=O)NCc2ccccc2)SCCO1,-1.75
24,CCc1ccccc1NC(=O)Cc1ccc(OC)cc1,-0.0404
25,COc1ccc2c(c1)-c1nc(NC(=O)c3cccnc3)sc1CC2,5.67
